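Grown in 96-well plates, cells were treated for 48 hours with each compound at five concentrations. Insufficient inhibition: endpoint recorded as highest concentration tested. At the GI50, growth is halved.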 Not every entry of the source has a single result; some have several. This is not the full list of results. An entry can have further records. The tests behind the records often covered other concentration ranges, not given here; a value can be the end of its range.

What is called GI50 is the concentration that inhibits growth by half. Low values mean more potent growth inhibition, high ones less potent growth inhibition.

The subject of the assay is MDA-MB-468 breast. The experiment in a line: DTP human tumour cell line panel, 48 h.

On to `COC(=O)[C@@H](C)C[C@H](Cc1ccccc1)NC(=O)c1csc([C@@H](C[C@H](C(C)C)N(C)C(=O)[C@@H](NC(=O)[C@H]2CCCCN2C)C2CC2)OC(C)=O)n1`, for which the GI50 was 0.13 nM and 1.65 nM.

The record behind these values is PubChem BioAssay (NCI).
